Measurements reported in paper PMC9228641 (Journal of medicinal chemistry, 2021).

Test system: NS3/4A protease D168A variant
Conditions: compared to the non-fluorinated parent 22

COc1ccc2nc(C)c(O[C@@H]3C[C@H]4C(=O)N[C@]5(C(=O)NS(=O)(=O)C6(C)CC6)C[C@H]5C=CCCCCC[C@H](NC(=O)OC5(C(F)(F)F)CCC5)C(=O)N4C3)nc2c1 (stereo in doubt) [Compound 26, 1-(Trifluoromethyl)cyclobutyl ((2R,6S,13aS,14aR,16aS,Z)-2-((7-methoxy-3-methylquinoxalin-2-yl)oxy)-14a-(((1-methylcyclopropyl)sulfonyl)carbamoyl)-5,16-dioxo-1,2,3,5,6,7,8,9,10,11,13a,14,14a,15,16,16a-hexadecahydrocyclopropa[e]pyrrolo[1,2-a][1,4]diazacyclopentadecin-6-yl)carbamate]
fold improvement in inhibitory potency against the D168A protease variant: 4 fold
